# According to paper PMC12040169 (PLOS Biology, 2025):
# The other results are listed elsewhere or left out.
# Test system: T1, C. trachomatis L2/434/Bu expressing GFP (CTL2-GFP)
# T1 construct: L2/434/Bu GFP intracellular growth in HeLa cells
# Set-up: species or system HeLa; C. trachomatis total inclusion area by high-content imaging, normalised to DMSO
# Details: total inclusion area; 28.5 h, 10 µM; inhibitor
# Procedure, shortened: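 Imaging read-out: GFP inclusions and Hoechst nuclei captured by high-content imaging after fixation. Inclusion area/number = chlamydial growth; nuclei count = host cell viability. MIC calculated per earlier method.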
row,SMILES,% of control remaining
1,Cc1ccc(-c2nn(CCC#N)cc2C(=O)N2CCCC2)cc1C [CBK305974],43.7468
2,O=C(NC1CN2CCC1CC2)c1ncoc1-c1ccccc1 (centres unmarked) [CBK283888],69.2914
3,O=c1c(Cl)nc(Cl)c(C2CCCCC2)n1Cc1ccccc1 [CBK012671],9.79
4,O=C(C1CC1)N1CCCC1c1nc(-c2ccc(F)cc2)n[nH]1 (centres unmarked) [CBK283934],72.4477
5,CCOc1ccc(C(=O)NCCC(=O)O)cc1 [CBK261725D],102.426
6,O=[N+]([O-])c1ccc2c(/C=N/c3ccc(-c4nc5ccccc5s4)cc3)c(O)ccc2c1 [CBK261483],114.423
7,Cc1ccc(S(N)(=O)=O)cc1NC(=O)c1ccc(Br)o1 [CBK003693],117.072
8,Cc1cc(C)c2c3c(sc2n1)C(=O)N(C)CC(=O)N3 [CBK287959],93.7135
9,CC(c1ccc2c(c1)OCO2)c1cc2c(cc1OCCO)OCO2 (centres unmarked) [CBK200110],70.1483
10,Cc1cc(-c2cc(=O)n(Cc3ccccc3)nc2C2CC2)on1 [CBK284365],69.779
11,CN1CCC(COC(=O)Nc2ccc3cc[nH]c3c2)CC1 [CBK200130],110.872
12,Nc1nnc(SCC(=O)N(Cc2ccccc2F)C2CC2)s1 [CBK295179],125.068
13,N#CCCCN1CCN(c2nccnc2OCCN2C(=O)CCC2=O)CC1 [CBK084299],98.4747
14,Cc1c(C(=O)O)sc2ncn(CCOc3ccc(Cl)cc3)c(=O)c12 [CBK286808],68.2624
15,COc1cc(Cl)cc(/C=N\NC(=O)C2C(=O)NCC2c2ccccc2)c1O (centres unmarked) [CBK262825],115.205
16,Cc1ccc(-c2nccnc2OCCOc2ccccc2)cc1C [CBK106865],88.8536
17,Cc1cc2cc(C(=O)NCC3CCCN(C(C)C)C3)ccc2o1 (centres unmarked) [CBK282625],88.3012
18,COc1cc(OC)cc(C(=O)N[C@@H]2CC[C@@]3(c4ccc(OC)c(OC)c4)CCN(C)[C@H]3C2)c1 [CBK074242T],92.9781
19,c1ccc(-c2nnc(Cn3cncn3)o2)cc1 [CBK011113],51.4008
20,O=C(O)CCC(=O)Nc1ccc(Br)c2cccnc12 [CBK265186],110.863
21,CN(C)S(=O)(=O)c1cc(C(=O)NCCc2c[nH]c3ccccc23)c(Cl)cc1Cl [CBK265883],109.328
22,CCCCNC(=O)c1ccc2c(c1)NC(=O)C(N1CCCC1)S2 (centres unmarked) [CBK071762],92.2527
23,COc1cccc(NC(=O)C(=O)NCCCO)c1 [CBK262095],94.7971
